Source: PubChem BioAssay (EPA / NIEHS)
The entries are a selection whose mix differs from that of the whole data set. Results filed as inconclusive are left out. Some structures have more than one record in an assay (separate samples or runs), and their calls can disagree. The source made the active and inactive calls. Rule for the calls: active = hit-call score of the fitted dose curve at least 0.9, where 1 is the maximum; inconclusive = response in the unintended direction; inactive = score below 0.9.

target: Cellular tumor antigen p53 (Homo sapiens) (UniProt P04637); assay: TOX21_p53_BLA_p2_ratio: Tox21 HCT-116 p53 Agonism Beta-lactamase Assay, Ratio, Phase 2 (AID 2283592)
Chain of UniProt P04637 (P04637 whole entry, looked up, the tested form may be a part): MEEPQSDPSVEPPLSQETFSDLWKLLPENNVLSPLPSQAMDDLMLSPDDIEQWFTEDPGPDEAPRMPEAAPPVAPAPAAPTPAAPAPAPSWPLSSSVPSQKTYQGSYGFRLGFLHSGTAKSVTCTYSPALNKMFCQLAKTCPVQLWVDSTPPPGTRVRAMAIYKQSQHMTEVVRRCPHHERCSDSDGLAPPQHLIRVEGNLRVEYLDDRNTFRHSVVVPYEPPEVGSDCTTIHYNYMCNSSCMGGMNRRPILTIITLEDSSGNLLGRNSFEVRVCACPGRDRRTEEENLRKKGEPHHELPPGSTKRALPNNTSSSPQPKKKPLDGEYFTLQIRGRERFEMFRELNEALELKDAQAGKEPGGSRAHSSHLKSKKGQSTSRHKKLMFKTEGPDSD
Text: TOX21_p53_BLA_p2 is a cell-based, single-readout assay that uses HCT116, a human intestinal cell line, […] in a 1536-well plate.TOX21_p53_BLA_p2_ratio is an assay readout measuring reporter gene via receptor activity and designed using inducible reporter (beta lactamase induction) detected with GAL4 b-lactamase reporter gene. The signal is derived from the ratio of cleaved (ch2) to uncleaved (ch1) reporter gene substrate used as the measure of target activity.Data from the assay component TOX21_p53_BLA_p2_ratio was analyzed into 1 assay endpoint. This assay endpoint, TOX21_p53_BLA_p2_ratio, was analyzed in the positive analysis fitting direction relative to DMSO as the negative control and baseline of activity. Using a type of inducible reporter, gain-of-signal activity can be used to understand changes in the reporter gene as they relate to the gene TP53. Furthermore, this assay endpoint can be referred to as a primary readout, because this assay has produced multiple assay endpoints and this ratio serves a reporter gene function to understand target activity. To generalize the intended target to other relatable targets, this assay endpoint is annotated to the DNA binding intended target family, where the subfamily is tumor suppressor.
Thawing Method: Place 14 mL of pre-warmed thaw medium into a 15 mL of conical tub. Remove the vial of cells to be thawed from liquid nitrogen and thaw rapidly by placing at 37C in a water bath with gentle agitation for 1-2 minutes. Decontaminate the vial by wiping with 70% ethanol before opening in a biological safety cabinet. Transfer the vial contents drop-wise into 14 mL of thaw medium in a sterile 15-mL conical tub. Centrifuge cells at 900 rpm for 4 minutes and resuspend in thaw medium. Transfer contents to the T75 tissue culture flask containing Thaw Medium and place flask in a humidified 37C/5% CO2 incubator. Switch to growth medium at first passage.Propagation Method: Aspirate medium, rinse once in DPBS, add 0.25% Trypsin/EDTA and swirl to coat the cell evenly. Add an equal volume of Growth Medium to inactivate Trypsin after 2-3 minutes incubation at 37C. Centrifuge cells at 900 rpm for 4 minutes and resuspend in growth medium. Cell should be passage or fed at least twice a week.Assay Protocol: Harvest cells from culture in growth medium and resuspend in assay medium. 2.2 Dispense 4000 cells/5 uL/well into 1536-well black/clear bottom plates using a Multidrop dispenser. After the cells were incubated at 37C for 5 hours, 23 nL of compounds dissolved in DMSO were transferred to the assay plate by a PinTool resulting in a 217-fold dilution. Incubate the plates for 16 hours at 37C, 5% CO2. Add 1 uL of 6X LiveBLAzer FRET B/G (CCF4-AM) Substrate Mixture to each well using a BioRAPTR dispenser and incubate the plates at room temperature for 2 hours. Measure fluorescence intensity at 460 and 530 nm emission and 405 nm excitation by an Envision detector. Data is expressed as the ratio of 460nm/530nm emissions. Add 4 uL of Cell-titer Glo to each well using BioRAPTR and incubate the plates at room temperature for 2 hours. Measure fluorescence intensity by a VewLux plate reader.

Row | Compound | outcome | AC50
1 | CCC(C)c1cc([N+](=O)[O-])cc([N+](=O)[O-])c1O (stereo not drawn) | inactive | –
2 | CCCN(CCOc1c(Cl)cc(Cl)cc1Cl)C(=O)n1ccnc1 | – | active: 76.8 µM
3 | C[C@]12CC[C@H]3[C@@H](CCC4=CC(=O)CC[C@@H]43)[C@@H]1CC[C@@H]2O | inactive | –
4 | Clc1ccc(Cl)cc1 | inactive | –
5 | C=C1CC[C@@]2(O)[C@H]3Cc4ccc(O)c5c4[C@@]2(CCN3CC2CC2)[C@H]1O5 | inactive | –
6 | c1ccc(C2(N3CCCC3)CCCCC2)cc1 | inactive | –
7 | CC(=O)Oc1ccc2c3c1O[C@H]1[C@@H](OC(C)=O)C=C[C@H]4[C@@H](C2)N(C)CC[C@@]341 | inactive | –
8 | CNC(=O)Oc1cccc(N=CN(C)C)c1 | inactive | –
9 | C=CC(=O)NCNC(=O)C=C | inactive | –
10 | CN(C)C(=O)C(c1ccccc1)c1ccccc1 | inactive | –
11 | COC(=O)c1ccccc1S(=O)(=O)NC(=O)N(C)c1nc(C)nc(OC)n1 | inactive | –
12 | CC(O)CCO (stereo not drawn) | inactive | –
13 | C[C@]12N[C@H](Cc3ccccc31)c1ccccc12 | inactive | –
